According to PubChem BioAssay AID2147 (National Center for Advancing Translational Sciences (NCATS), 2009):
Out of some 230,000 compounds screened, about 3,600 (1.6%) were called active. Inconclusive results, whose numbers are uncertain, are shown with a selection of clear calls. Calls follow the shape of the dose curve; as a rule, active = well fitted inhibition curve with a large enough effect (not every such curve was filed as active); inconclusive = small, poorly fitted or top-dose-only effect, or another doubt; inactive = no such curve, though single readings can be large or run the other way. A potency beside an inconclusive call is a rough fit, not a confirmed value.
Also: nearly all actives have a fitted effect of over 50% in size.
Potency is read from the fitted curve at half-maximal effect; tags tell the direction and shape of the fitted curve.

Each compound was assayed against Lysine-specific demethylase 4E (Homo sapiens) (UniProt B2RXH2) (assay: qHTS Assay for Inhibitors of Human Jumonji Domain Containing 2E (JMJD2E)). Details: JMJD2E catalytic domain, FDH-coupled NADH fluorescence (FDH is formaldehyde dehydrogenase); series mostly up to 57.1 µM.
Chain of UniProt B2RXH2 (B2RXH2 whole entry, looked up, the tested form may be a part): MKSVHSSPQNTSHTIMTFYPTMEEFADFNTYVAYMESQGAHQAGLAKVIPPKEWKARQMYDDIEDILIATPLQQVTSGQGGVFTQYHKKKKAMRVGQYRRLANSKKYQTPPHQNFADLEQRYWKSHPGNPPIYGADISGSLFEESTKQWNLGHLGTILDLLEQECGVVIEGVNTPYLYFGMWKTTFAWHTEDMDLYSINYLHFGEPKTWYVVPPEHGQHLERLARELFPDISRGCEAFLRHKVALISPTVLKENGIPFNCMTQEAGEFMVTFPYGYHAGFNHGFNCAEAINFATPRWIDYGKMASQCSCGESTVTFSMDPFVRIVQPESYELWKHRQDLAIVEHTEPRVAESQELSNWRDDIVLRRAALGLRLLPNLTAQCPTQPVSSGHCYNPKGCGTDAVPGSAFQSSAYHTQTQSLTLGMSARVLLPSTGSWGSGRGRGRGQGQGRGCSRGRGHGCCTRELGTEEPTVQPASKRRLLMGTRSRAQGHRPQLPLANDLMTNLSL
In the case of `COC(=O)CSc1nc(N)c(C#N)c(C(C)C)c1C#N`, the Potency is reported as inconclusive: 39.8 µM [inhibitor, single point]. `CSc1ccc(/C=N/n2nnnc2N)cc1` was tested, and the Potency was inconclusive: 28.2 µM [inhibitor, partial curve]. For `Cc1ccc(CN(Cc2cccnc2)C(=O)CN2C(=O)COc3ccccc32)o1`, the Potency was “inactive”. With `S=c1nc(-c2ccccc2Cl)n(Cc2cccnc2)c2c1CCCC2` the Potency was “inactive”. For `COc1cccc(C2=CC(c3ccccc3)n3nnnc3N2)c1` (stereo not drawn), the Potency was inconclusive: 35.5 µM [inhibitor, single point]. `Cn1c(=O)c(C(=O)CN2CC(=O)Nc3ccccc32)c(N)n(Cc2ccccc2)c1=O` was tested, and the Potency was inconclusive: 28.2 µM [inhibitor, partial curve]. For `CCc1ccc2c(c1)C1(C(=O)N2)N2CCCC2C(C(=O)c2ccc3ccccc3c2)C12C(=O)Nc1ccccc12` (stereo not drawn), the Potency was inconclusive: 31.6 µM [inhibitor, single point]. For `O=[N+]([O-])c1ccc(N/N=C2/CCCCC2c2ccccn2)cc1` (stereo not drawn), the Potency was “inactive”. `CCOC(=O)C1CCN(C(c2cccnc2)c2c(NC(=O)c3ccco3)sc(C)c2C)CC1` (stereo not drawn) was tested, and the Potency was inconclusive: 28.2 µM [inhibitor, partial curve]. `N#Cc1nc(-c2ccc(F)cc2)oc1NCc1ccco1` was tested, and the Potency was inconclusive: 28.2 µM [inhibitor, partial curve]. `CN1C(=O)c2ccccc2N(C)C1c1ccc2c(c1)OCO2` (stereo not drawn) was tested, and the Potency was inconclusive: 31.6 µM [inhibitor, partial curve]. For `O=C(COC(=O)c1cc(=O)[nH]c2ccccc12)Nc1nc(-c2cccc(Br)c2)cs1`, the Potency was inconclusive: 31.6 µM [inhibitor, partial curve]. In the case of `O=C(N/N=C/C=C\c1ccco1)c1cccs1`, the Potency is reported as inconclusive: 35.5 µM [inhibitor, single point]. In the case of `Cc1ncc(C[n+]2csc(CCOC(=O)C34CC5CC(CC(C5)C3)C4)c2C)c(N)n1`, the Potency is reported as “inactive”. `CCOC(=O)c1c(NC(C)=O)sc2c(OCC(O)CN(CC)CC)c(Br)ccc12` (stereo not drawn) was tested, and the Potency was inconclusive: 28.2 µM [inhibitor, single point]. With `Cc1ccc(NCN2C(=O)C3C4CCC(C4)C3C2=O)cc1` (stereo not drawn) the Potency was “inactive”. With `CCOc1nc(-c2ccc(OC)cc2)ccc1-c1noc(-c2cc(OC)c(OC)c(OC)c2)n1` the Potency was inconclusive: 8.91 µM [inhibitor, single point]. For `CC1=C(C(=O)OCCOC(C)C)C(c2cccnc2)C2=C(CCCC2=O)N1` (stereo not drawn), the Potency was inconclusive: 28.2 µM [inhibitor, partial curve]. For `O=S(=O)(c1ccc(NC(=S)NN=C2CCCCC2)cc1)N1CCOCC1`, the Potency was inconclusive: 25.1 µM [inhibitor, single point]. With `CCn1c(-c2ccc(-c3ccccc3)cc2)c[nH]c1=S` the Potency was inconclusive: 31.6 µM [inhibitor, partial curve]. `CS(=O)(=O)N1CCN(CC2CC3C=CC2C3)CC1` (stereo not drawn) was tested, and the Potency was inconclusive: 25.1 µM [inhibitor, single point]. `CCN(c1cccc(C(F)(F)F)c1)S(=O)(=O)c1ccc2c(c1)CCN2C(C)=O` was tested, and the Potency was “inactive”. With `C=CCn1c(-c2ccc(OC)c(OC)c2)n[nH]c1=S` the Potency was inconclusive: 31.6 µM [inhibitor, single point]. For `O=C(NCc1ccco1)C(=O)NCC1OCCCN1S(=O)(=O)c1ccccc1` (stereo not drawn), the Potency was “inactive”. With `COc1ccc(N=C2C(=Nc3ccc(OC)cc3)N(c3ccc(N(C)C)cc3)C(=S)N2c2ccc(OC)cc2)cc1` the Potency was “inactive”. For `COC(=O)c1cc(NC(=O)c2ccc(F)cc2)cc(C(=O)OC)c1`, the Potency was inconclusive: 3.16 µM [inhibitor, partial curve, poor fit]. In the case of `Cc1ccc(S(=O)(=O)N2CCC(C(=O)NCCN3CCCCCC3)CC2)cc1`, the Potency is reported as “inactive”. `Clc1cc(Sc2ccc(Br)cc2)nnc1-c1ccccc1` was tested, and the Potency was “inactive”. `Cc1ccc2nc(-c3ccc(NC(=O)COCC(=O)O)cc3)sc2c1` was tested, and the Potency was inconclusive: 35.5 µM [inhibitor, partial curve]. For `Cc1nn(-c2ccccc2)c(C)c1/C=N/NC(=O)c1cc(-c2ccc(Br)s2)[nH]n1`, the Potency was inconclusive: 39.8 µM [inhibitor, single point]. For `Cc1ccc(S(=O)(=O)N2CCN(c3ccnc4cc(Cl)ccc34)CC2)cc1C`, the Potency was inconclusive: 28.2 µM [inhibitor, partial curve]. With `O=C1NC2=C(CCc3ccccc32)C(c2ccc(Br)cc2)N1` (stereo not drawn) the Potency was inconclusive: 25.1 µM [inhibitor, partial curve]. With `Cc1ccc([C@@H]2C3COCC=C3C(C#N)=C(N)C2(C#N)C#N)o1` (stereo partly drawn) the Potency was inconclusive: 25.1 µM [inhibitor, partial curve]. With `O=Cc1ccc(-c2cccc(C(=O)O)c2)o1` the Potency was inconclusive: 28.2 µM [inhibitor, single point]. In the case of `CC(=O)c1sc(NC(=O)c2c(F)cccc2F)nc1-c1ccccc1`, the Potency is reported as “inactive”. `O=C(/C=C/c1ccccc1)Nc1nc(-c2ccncc2)cs1` was tested, and the Potency was inconclusive: 28.2 µM [inhibitor, single point]. With `O=C(CSc1nncs1)Nc1cc(-c2ccccc2)nn1-c1ccccc1` the Potency was “inactive”. With `CCN(CC)CCn1c(NCc2cc(OC)ccc2OC)nc2ccccc21` the Potency was inconclusive: 39.8 µM [inhibitor, single point]. For `Cc1ccc2[nH]c3c(NCc4ccco4)ncnc3c2c1`, the Potency was inconclusive: 28.2 µM [inhibitor, partial curve]. With `C=CCCC(=O)Nc1nc(C)c(-c2csc(Nc3cc(OC)ccc3OC)n2)s1` the Potency was inconclusive: 28.2 µM [inhibitor, single point]. With `CC(=O)NNc1nc(-c2ccccc2)cs1` the Potency was inconclusive: 39.8 µM [inhibitor, single point]. `NCCC[C@@H](CC(=O)N[C@@H]1CCCC[C@H]1C(=O)N[C@H](CC(=O)N[C@@H](CCC(=O)O)CC(=O)O)Cc1c[nH]c2ccccc12)NC(=O)C[C@H](Cc1c[nH]c2ccccc12)NC(=O)[C@@H]1CNCC[C@H]1N` was tested, and the Potency was “inactive”. `COc1cccc(C2C=C(c3cccs3)Nc3ncnn32)c1OC` (stereo not drawn) was tested, and the Potency was inconclusive: 31.6 µM [inhibitor, partial curve].
